# Data from PubChem BioAssay AID686979 (National Center for Advancing Translational Sciences (NCATS), 2013).
# The campaign covered roughly 420,000 compounds. About 50,000 (12%) were called active. The shares of active, inactive and inconclusive entries below differ from those in the screen. Calls come from the whole dose curve; as a rule, active = well fitted inhibition curve with a large enough effect; inconclusive = small, poorly fitted or top-dose-only effect; inactive = flat fitted curve, though single readings scatter. No potency is given beside an inconclusive call; the fits are too rough.
# Assay: qHTS for Inhibitors of human tyrosyl-DNA phosphodiesterase 1 (TDP1): qHTS in cells in presence of CPT; note: nearly all actives have a fitted effect of over 55% in size
# Settings: chicken DT40 Tdp1-/-;hTDP1 cells + 20 nM CPT, ATP luminescence, 48 h; activity change, negative = growth inhibition: at 46.2 µM (top of the series) unless noted
# Method in brief: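 Chicken DT40 Tdp1-/- cells complemented with human TDP1, 400 cells/well, exposed to compounds plus 20 nM camptothecin for at least 48 h at 37 C; viability read as ATP content by CellTiter-Glo luminescence.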
# % is set by controls: 0 for no effect and ±100 for the full control effect; potency is the fitted concentration of half-maximal effect; tags give direction and shape of the fitted curve.
SMILES,Potency,"activity change, negative = growth inhibition"
COc1ccc(C2C=C(c3ccc(F)cc3)Nc3nc(-c4ccc(Cl)cc4)nn32)cc1 (stereo not drawn),"inconclusive [inhibitor, single point]",–
O=C(C[n+]1cccc2ccccc21)c1ccc(F)cc1,inactive,–
CN(N=O)c1ccc(/C=C/c2ccccc2)cc1,"inconclusive [inhibitor, single point]",–
COc1cc(C)cc(C(=O)C=Cc2ccccc2)c1O,"inconclusive [inhibitor, partial curve]",–
CCOC(=O)N1CCN(C(=O)C2CCN(C(=O)c3cc4sccc4n3CC)CC2)CC1,inactive,–
COc1ccc(-c2nc(C#N)c(NCc3ccco3)o2)cc1,"inconclusive [inhibitor, single point]",–
COc1ccccc1CNC(=O)CCNS(=O)(=O)c1ccc2[nH]c(=O)oc2c1,inactive,–
CC(C)Cc1ccc(-c2cc3nc(NCCOc4ccccc4)ccn3n2)cc1,"inconclusive [inhibitor, partial curve, poor fit]",–
COc1cc(OC)c(NC(=O)c2ccoc2C)cc1Cl,active: 14.6 µM,–
CC1CCN(c2nc3c(S(=O)(=O)c4ccccc4)nnn3c3ccc(Cl)cc23)CC1,active: 16.4 µM,–
COc1ccc(NC(=O)c2ccc3c(c2)N(Cc2cccc(Cl)c2)C(=O)c2ccccc2S3=O)cc1Cl (stereo not drawn),"inconclusive [inhibitor, single point]",–
CC(=O)c1ccc(NC(=O)c2ccc(S(=O)(=O)N3CCCC3)cc2)cc1,"inconclusive [inhibitor, single point]",–
COc1ccccc1NC(=O)c1ccccc1Nc1ccccc1,"inconclusive [inhibitor, single point]",–
Nc1[nH]c(=O)[nH]c(=O)c1N=Nc1cccc(Cl)c1,"inconclusive [inhibitor, single point]",–
COc1ccccc1NC(=O)NCCCN1CCN(c2ccc(F)cc2)CC1,"inconclusive [inhibitor, single point]",–
CCN(CC)C(=O)C1=C(C)N(CCCN2CCCC2=O)C(=O)C(CC(=O)NCc2cccc3ccccc23)C1 (stereo not drawn),inactive,–
Cc1ccc(-c2nc3ccccc3[nH]2)cc1NC(=O)COc1ccccc1[N+](=O)[O-],active: 14.6 µM,–
CCCn1c(SCC(=O)Nc2ccccc2Cl)nc(O)cc1=O,"inconclusive [inhibitor, partial curve]",–
N#Cc1nc(COc2ccc(Cl)cc2Cl)oc1N1CCN(c2ccccc2)CC1,"inconclusive [inhibitor, single point]",–
O=C(C[C@H]1C/C=C/CC[C@H](Cc2ccc(F)cc2)C(=O)O[C@H](c2ccccc2)CNC1=O)NCCO,"inconclusive [inhibitor, single point]",–
CCCCNC(=O)C1(C)CCN1C(=O)c1cc2ccccc2s1 (stereo not drawn),"inconclusive [inhibitor, single point]",–
CC[C@@]12C(=O)N(c3cccc(F)c3)C(=O)N1[C@H](c1cccc(C)c1)[C@@H]1C(=O)N(Cc3ccccc3)C(=O)[C@@H]12,inactive,–
Cc1cccc(N(C(=O)c2csnn2)C(C(=O)NC(C)(C)C)c2cccnc2)c1 (stereo not drawn),inactive,–

SMILES,Potency,"activity change, negative = growth inhibition"
O=C(Nc1ccc2nc(-c3cccs3)c(-c3cccs3)nc2c1)N1CCOCC1,"inconclusive [inhibitor, partial curve]",–
Cc1ccccc1Cn1c(C)c(C(=O)NCC(C)C)sc1=O,"inconclusive [inhibitor, single point]",–
O=C(COC(=O)c1c(Cl)ccc(Cl)c1Cl)NC(=O)NCc1ccccc1,"inconclusive [inhibitor, partial curve, poor fit]",–
Nc1cccc2[nH]c(C(F)(F)F)nc12,inactive,–
Cc1cc(C)cc(NC(=O)CSc2nncn2-c2ccccn2)c1,inactive,–
COC(=O)[C@@]12C[C@@H](CC(=O)N3CCCCC3)C(=O)N(Cc3ccc4c(c3)OCO4)C1=CCC(C)(C)C2,"inconclusive [inhibitor, single point]",–
CN(Cc1cc2ccccc2[nH]c1=O)C(=O)c1cccs1,inactive,–
CNc1ccc(Cl)cc1S(=O)(=O)c1ccccc1[N+](=O)[O-],inactive,–
O=C(O)c1ccc(N/N=C/c2ccc(OC(=O)c3ccccc3Cl)cc2)cc1,inactive,–
CC1NC(=O)NC1CCCCCC(=O)Nc1ccc(F)c(Cl)c1 (stereo not drawn),inactive,–
CCc1nc2c(OCc3ccc(Cl)cc3)cccn2c1N(C)C(=O)c1ccco1,active: 16.4 µM,–
CCCN1CCN(CCCNC(=O)c2ccc3c(c2)sc2nc(-c4ccc(OC)cc4)cn23)CC1,active: 1.46 µM,–
CC(=O)O[C@H]1CC[C@H]2[C@@H]3CCc4cc(O)ccc4[C@H]3CC[C@]12C,"inconclusive [inhibitor, single point]",–
COc1cc(CCNc2ccc3nnc(-c4ccccc4)n3n2)cc(OC)c1OC,active: 16.4 µM,–
C=C(C)Cn1c(C2CC(=O)N(c3ccccc3F)C2)nc2ccccc21 (stereo not drawn),"inconclusive [inhibitor, single point]",–
C=Cc1ccc(N=Cc2c(O)ccc3ccccc23)cc1,"inconclusive [inhibitor, single point]",–
COc1ccc(-c2csc(N(CCCN(C)C)C(=O)c3ccc(C)cc3)n2)cc1,"inconclusive [inhibitor, single point]",–
O=C(COC(=O)c1ccc(S(=O)(=O)N2CCCCCC2)cc1)NCc1ccc(Cl)cc1,"inconclusive [inhibitor, single point]",–
Cc1cc2ncn(/N=C/c3ccc(-c4ccccc4)o3)c2cc1C,inactive,–
Cn1cnnc1Sc1cc(N2CCN(S(=O)(=O)c3ccc4ccccc4c3)CC2)ccc1[N+](=O)[O-],"inconclusive [inhibitor, single point]",–
O=C(Cn1ncc(Cl)c(Cl)c1=O)N1CCOCC1,"inconclusive [inhibitor, single point]",–
CCn1c(/C=C/c2c[nH]c3ccccc23)nc2ccccc2c1=O,"inconclusive [inhibitor, full curve]",–
COc1ccc(N2C3=[N+](CC2(C)O)c2ccccc2CC3)cc1 (stereo not drawn),–,inconclusive: -30.6% [inhibitor]

SMILES,Potency,"activity change, negative = growth inhibition"
CCOc1cc2[nH]c(=S)n(Cc3ccc(C(=O)NCCCN4CCOCC4)cc3)c(=O)c2cc1OCC,"inconclusive [inhibitor, single point]",–
O=C(CN1CCN(C(=O)CCC(=O)N2CCC(c3ccccc3)=N2)CC1)Nc1ccc(F)cc1,"inconclusive [inhibitor, single point]",–
C/C=C/C=C/C(=O)N1CC[C@]23c4ccccc4N[C@H]4N(C)c5cccc6c5[C@]42CCN([C@H]6C2OC2(C)C)[C@H]13 (stereo partly drawn),"inconclusive [inhibitor, single point]",–
COc1ccc(/C=C2\SC(=S)N(CCCC(=O)Nc3ccccn3)C2=O)cc1OC,"inconclusive [inhibitor, single point]",–
Cn1nc(C(C)(C)C)cc1C(=O)N1CCCCC1c1cc(C(=O)N2CCOCC2)no1 (stereo not drawn),"inconclusive [inhibitor, partial curve]",–
CC(=O)N(c1ccc2oc(=O)sc2c1)S(=O)(=O)c1cccc2cccnc12,"inconclusive [inhibitor, single point]",–
CCC(C)NS(=O)(=O)c1ccc(NS(=O)(=O)c2ccc(F)cc2)cc1 (stereo not drawn),inactive,–
COc1ccc(N2CCN(S(=O)(=O)CCNC(=O)C(C)Oc3ccccc3)CC2)cc1 (stereo not drawn),"inconclusive [inhibitor, single point]",–
CC(=O)c1ccc(NS(=O)(=O)c2ccc(C)cc2)cc1,inactive,–
CC1=NN(/C(=N\c2nnc(C)s2)Nc2ccccc2)[C@H](c2cccc3ccccc23)S1,active: 23.1 µM,–
O=C(NCCCSc1ccccc1)c1cc(Cl)ccc1O,"inconclusive [inhibitor, single point]",–
CC1(C(=O)Nc2cccc(Oc3ccccc3)c2)CCN1Cc1cc2ccccc2o1 (stereo not drawn),active: 23.1 µM,–
CC(C)Cc1cc(C(=O)N2CCCC(CCC(=O)N(C)CCc3ccccn3)C2)no1 (stereo not drawn),inactive,–
N=c1sccn1CC(=O)Nc1cccc(Oc2ccccc2)c1,"inconclusive [inhibitor, partial curve]",–
CCOc1ccc(N2CC(C(=O)Nc3ccc(OC)c(S(=O)(=O)N4CCCCC4)c3)CC2=O)cc1 (stereo not drawn),"inconclusive [inhibitor, single point]",–
O=C(Nc1ccc(O)cc1)c1ccccc1OCc1ccccc1,"inconclusive [inhibitor, single point]",–
COc1ccc(Cl)cc1NC(=S)NCCc1c[nH]c2ccccc12,"inconclusive [inhibitor, single point]",–
O=S(=O)(c1ccc2c(c1)CCCN2)N1CCCC2CCCCC21 (stereo not drawn),"inconclusive [inhibitor, single point]",–
Cn1c(SCC(=O)N2CCOCC2)ncc(C(=O)Nc2ccccc2)c1=O,"inconclusive [inhibitor, single point]",–
O=C(CCc1ccccc1)N=C1SC2CS(=O)(=O)CC2N1Cc1ccc(F)cc1 (stereo not drawn),"inconclusive [inhibitor, single point]",–
Cc1ccccc1Cn1c(CN2CCC(C(=O)NCc3cccnc3)CC2)cc2ccccc21,"inconclusive [inhibitor, single point]",–
Cc1ccc2c(c1)c1c3n2CCN(CC(O)CNC(C)C)C3CCC1 (stereo not drawn),"inconclusive [inhibitor, single point]",–
